{"source": "paper PMC12136788", "binders": {"B1": {"name": "chr1:46159212:46159213:+_ENSG00000159596_ENST00000372025|hu_mus|hu_hu_hu_mus_True|18_28 (ssRNA)", "RNA": "GGGAGUUCUACAGUCCGACGAUCUCUGAUCCCUCCCAAGAAAGCUAGGAAACCGGCUCCAUAAGCCAUCUGAGUGAAAGCUAGGACGGGGAUAUAAGACUUUGUUAUCAGCAUGACCAGUGGUGGAGCAGUAAAGGGGAUUAACAACAGAGGAUUGAGCAUCA"}, "B2": {"name": "chr1:150802451:150802452:-_ENSG00000143437_ENST00000358595|hu_mus|FALSE|FALSE (ssRNA)", "RNA": "GGGAGUUCUACAGUCCGACGAUCGGCCACUAGGCAGAAUUUGCUCCCCUGGCCAGCCUCUGGGUCAUCAUCUGGGAGGGAGACACCUGCUGGUGGCCAGGCCUUGAUGUAGCCUGUGCAGUGGACUACCACAAAGUGAGGUUCCAACAGAGGAUUGAGCAUCA"}, "B3": {"name": "chr12:39756943:39756944:-_ENSG00000139116_ENST00000544797|hu_mus|hu_hu_hu_mus_False|68_68 (ssRNA)", "RNA": "GGGAGUUCUACAGUCCGACGAUCGGUUUGGCUGUUACCCCCAAGGGAAUCCUGCAAGAGUCUUGUCAGCUUGGAAUCUCUGUAAGGGACAUGGGUGGCUCUCUUGCUCUUGUCCCCCAAGGCGCUGAUUACAUUCCCAAGAGCCAACAGAGGAUUGAGCAUCA"}, "B4": {"name": "chr10:105151994:105151995:-_ENSG00000173915_ENST00000309579|hu_mus|FALSE|FALSE (ssRNA)", "RNA": "GGGAGUUCUACAGUCCGACGAUCUUCAAAAUCCAUUUAUGUUGCUUUCACAGCUGGAGUUUUCUUAGGCCUUAACUUGAAGUAUAAGACCAGCAAAGCAAUGCCUCCAUAUGUGGCCAGGACACAAUUCAUUCUACCUGUGAGCAACAGAGGAUUGAGCAUCA"}, "B5": {"name": "89581173_89583440_721_3pUTR_ENSMUSG00000042572_ENSMUST00000038356|mouse|control|control (ssRNA)", "RNA": "GGGAGUUCUACAGUCCGACGAUCGUUCUCUUUUCCGAUGCCAUCAUCUUCAGACUUCUUGCCCUCGGCUGGCUCUUCCUCUUUCAUUUCAUAGUGAUCUAGGUCUUCUGUAUCCUCAGGCAUCUCUUCAUCUUCAUCUUCUGACAACAGAGGAUUGAGCAUCA"}, "B6": {"name": "chr8:38095079:38095080:+_ENSG00000085788_ENST00000520272|hu_hu|motif|central (ssRNA)", "RNA": "GGGAGUUCUACAGUCCGACGAUCAGAUUCCAGUUUCUUUUUCCAUUCAUCCAAAGUUACAGCAAGCAUGUAAGUUUCCUCGGAAACUUGGCUGAAGCUCUCCGAGUAGGGAACAUACUUAUUGUCUUUGUCCCCCUUGUAAAACAACAGAGGAUUGAGCAUCA"}, "B7": {"name": "chr1:60041781:60041782:+_ENSMUSG00000041040_ENSMUST00000036540|mus_hu|mus_mus_mus_hu_False|1_48 (ssRNA)", "RNA": "GGGAGUUCUACAGUCCGACGAUCAAGUUUACAAUAGUAAAGUAAAUGCAGUAGUGGCAAAUUUUCUUUUAUUUUCCUUCACAAAAGAAAACCUCAGUAACCCAGUCCUAGUCUUGGACAUAGUGAAAGCUAUAAAUGCCACUGCAACAGAGGAUUGAGCAUCA"}, "B8": {"name": "86333000_86333120_218_5pUTR_ENSG00000068654_ENST00000263857|human|control|control (ssRNA)", "RNA": "GGGAGUUCUACAGUCCGACGAUCCGUGCGCUUGCGCGCGGAAGCGGUCGCAGGAACGACAUUUACGUGGAUGAGAUCACUUCUACAUGGGGGGGGAACAAAUAGUUGUACGACUCUCUGCUCGCUCUUUUGUUUUGAAAACAACAACAGAGGAUUGAGCAUCA"}, "B9": {"name": "chr16:20679341:20679342:+_ENSMUSG00000045983_ENSMUST00000044783|mus_hu|FALSE|FALSE (ssRNA)", "RNA": "GGGAGUUCUACAGUCCGACGAUCGACUGGGGAUGGUGAUGGGGUCGGAGAAGGCGACGAAGGCUGGGAUUCUGAAGGGCUAUGCUCUGGGCCAGGCAGCCCUGGCCGGUCAGCAAUGAUUGCUCCCUGUGACCGGUCAUCUGGCAACAGAGGAUUGAGCAUCA"}, "B10": {"name": "chr7:149068622:149068623:-_ENSMUSG00000025139_ENSMUST00000001950|mus_hu|mus_mus_mus_hu_False|8_38 (ssRNA)", "RNA": "GGGAGUUCUACAGUCCGACGAUCGUGAGGCCUCUGAGUGUGGCUUGUGGUCUGUCCUGGGUUAGAGUUGUUAAUAUCACGGAACAUACCAUCUAGAGAGGUUCUGCCCCGCCUGACACCUUCAUUCGCAAGAGGGCAGAAAUCCAACAGAGGAUUGAGCAUCA"}, "B11": {"name": "chr2:48026839:48026840:+_ENSG00000116062_ENST00000540021|hu_hu|FALSE|FALSE (ssRNA)", "RNA": "GGGAGUUCUACAGUCCGACGAUCAUAGUGUGCCACUAGAGUCCUAAAUCUCGAACAAUGGCGAUCAUCUGAAAACUGACCUAUGAAAAACUUUCCCAGUGAAGUAUCAACAAAGCACACACCAUAUGCACGAGUAUGGCCAGACAACAGAGGAUUGAGCAUCA"}, "B12": {"name": "chr1:46159212:46159213:+_ENSG00000159596_ENST00000372025|hu_mus|hu_hu_hu_mus_True|18_48 (ssRNA)", "RNA": "B1 RNA with G90A, C108U, G110C, C116G"}, "B13": {"name": "34923286_34923406_1837_CDS_ENSG00000159140_ENST00000381679|human|control|control (ssRNA)", "RNA": "GGGAGUUCUACAGUCCGACGAUCCUGCCCCAAAAGCUCCAGUGCUCCAGCUGCCCCAGACUGCCCCGAGAACUCCAGUGCCCCAGCUGCCAUGAGCGGCCCAGGCAACUCUAGUGCCCCAGUUGCCACAGGCUGCCCCGACAACAACAGAGGAUUGAGCAUCA"}, "B14": {"name": "chr2:235962676:235962677:+_ENSG00000130147_ENST00000392011|hu_mus|FALSE|FALSE (ssRNA)", "RNA": "GGGAGUUCUACAGUCCGACGAUCUCUUCUGUUUAAAAAAGUGAUUUUAAAUUUAAACGUACAUUUUCAACAAAUAGAAAGCAACACAAUUGGCAACUGGAAGUAGAAAGCCCCUGGGACCUGCCCCUGGAUAGAGGGGAGGGGCAACAGAGGAUUGAGCAUCA"}}, "note": "Residue numbers refer to the chain shown, from its start. The list shows a part of the results."}
{"target": "T1, UNK ZnF1-3 (human, UniProt Q9C0B0 31-174)", "T1 sequence": "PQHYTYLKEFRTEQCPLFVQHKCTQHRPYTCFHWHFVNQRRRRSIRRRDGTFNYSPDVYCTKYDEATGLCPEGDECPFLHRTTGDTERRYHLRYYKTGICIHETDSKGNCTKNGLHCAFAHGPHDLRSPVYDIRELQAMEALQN", "experiment": "nsRBNS (natural sequence RNA bind-n-seq); RBNS binding buffer (assumed for nsRBNS): 25 mM Tris pH 7.5, 150 mM KCl, 3 mM MgCl2, 0.01% Triton X-100, 500 ug/ml BSA, 20 U/ml SUPERase-In, 4 C; UNK is unkempt and MSI1 is Musashi-1; names of the RNAs are library labels; protein concentration not given here; high values mean tight binding", "units": {"binding signal": "enrichment R"}}
{"binder": "B1", "binding signal": 1.68}
{"binder": "B2", "binding signal": 0.835}
{"binder": "B3", "binding signal": 0.693}
{"binder": "B4", "binding signal": 0.745}
{"binder": "B5", "binding signal": 0.412}
{"binder": "B6", "binding signal": 0.589}
{"binder": "B7", "binding signal": 0.777}
{"binder": "B8", "binding signal": 1.15}
{"binder": "B9", "binding signal": 0.891}
{"binder": "B10", "binding signal": 0.795}
{"binder": "B11", "binding signal": 1.7}
{"binder": "B12", "binding signal": 2.03}
{"binder": "B13", "binding signal": 0.989}
{"binder": "B14", "binding signal": 0.707}
